{
  "source": "PubChem BioAssay AID485313",
  "about": "(National Center for Advancing Translational Sciences (NCATS), 2010)",
  "note": "About 7,600 (2.4%) of roughly 320,000 compounds were called active. This list was built around the results that the source calls inconclusive (neither active nor inactive); the mix of calls is not that of the screen. Calls come from the whole dose curve; as a rule, active = well fitted activation curve with a large enough effect; inconclusive = small, poorly fitted or top-dose-only effect; inactive = no such curve, though single readings can be large or run the other way. No potency is given beside an inconclusive call; the fits are too rough. Potency is the fitted concentration of half-maximal effect; tags give direction and shape of the fitted curve.",
  "data": [
    {"experiment": "qHTS Assay for NPC1 Promoter Activators; note: nearly all actives have a fitted effect of over 60% in size;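 for activation: reporter is driven by a mutant NPC1 promoter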", "settings": "Huh7 NPC1 promoter luciferase reporter, 24 h; series mostly up to 9.22 µM", "procedure,_shortened": "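NPC1 promoter–luciferase Huh7 cells; 24 h compound; luminescence.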", "values": [
      {"smiles": "C[C@@H]1CC=C[C@H]2[C@H]1C(=O)N(Cc1ccccc1)[C@H]2c1ccc(-c2cc3ccccc3s2)cc1F", "Potency": "inconclusive [activator, single point]"},
      {"smiles": "CCN1C(=O)c2ccccc2Sc2ccc(C(=O)NCCCN(CC(C)C)CC(C)C)cc21", "Potency": "inactive"},
      {"smiles": "Cc1ccc(-c2cc(N)n(-c3ccc(F)cc3)n2)cc1", "Potency": "inconclusive [activator, partial curve]"},
      {"smiles": "CC(C)CCNC(=O)c1ccc(-c2ccccc2)cc1", "Potency": "inconclusive [activator, single point]"},
      {"smiles": "COc1cccc(/C=C2\\Oc3ccc(O)cc3C2=O)c1O", "Potency": "inconclusive [activator, single point]"},
      {"smiles": "COC(=O)c1ccc(COc2cccnc2[N+](=O)[O-])cc1", "Potency": "inactive"},
      {"smiles": "Cc1c(C(=O)NCC2CCCO2)oc2ccccc12", "note": "(stereo not drawn)", "Potency": "inconclusive [activator, single point]"},
      {"smiles": "COc1cccc(CNC(=O)C2CCC(=O)N(CC3CCCCC3)C2)c1OC", "note": "(stereo not drawn)", "Potency": "inactive"},
      {"smiles": "c1ccc(-c2ccc(OCCN3CCOCC3)cc2)cc1", "Potency": "inconclusive [activator, partial curve]"},
      {"smiles": "O=c1c(-c2cc3ccccc3o2)[n+]([O-])c2ccccc2n1OCc1ccccn1", "Potency": "inconclusive [activator, single point]"},
      {"smiles": "CCN(CC(=O)NCc1ccc(Cl)cc1)C(=O)CSc1ccc(Br)cc1", "Potency": "inconclusive [activator, single point]"},
      {"smiles": "Cc1ccc(-n2ncc3c(N4CCCC(C)C4)ncnc32)c(C)c1", "note": "(stereo not drawn)", "Potency": "active: 3.16 µM"},
      {"smiles": "Cc1[nH][nH]c(=O)c1C(c1ccc(-c2ccc(Cl)cc2Cl)o1)c1c(C)[nH][nH]c1=O", "Potency": "inactive"},
      {"smiles": "Cc1c(C)c2ccc(OCc3ccc(C(=O)O)o3)c(C)c2oc1=O", "Potency": "inactive"},
      {"smiles": "O=c1cc(-c2ccccc2Cl)oc2c([N+](=O)[O-])c(O)cc(O)c12", "Potency": "inactive"},
      {"smiles": "Cc1ccccc1-c1nnc(SCc2ccccc2)o1", "Potency": "inconclusive [activator, partial curve]"},
      {"smiles": "c1ccc(COc2ccc(OCCCN3CCCCC3)cc2)cc1", "Potency": "inconclusive [activator, partial curve]"},
      {"smiles": "COc1ccccc1OCC(=O)Nc1cc(C)ccc1NC(=O)c1ccco1", "Potency": "inactive"},
      {"smiles": "CC(C)(C)C(=O)Oc1ccc2cc(-c3ccc4ccccc4n3)c(=O)oc2c1", "Potency": "inconclusive [activator, single point]"},
      {"smiles": "COc1ccc(NC(=O)c2ccc3c(c2)OCO3)cc1", "Potency": "active: 1.12 µM"},
      {"smiles": "O=C(Cn1nnc2ccccc21)c1ccc(Cl)cc1", "Potency": "inconclusive [activator, single point]"},
      {"smiles": "CCCCSc1nc2ccccc2[nH]1", "Potency": "inconclusive [activator, partial curve]"},
      {"smiles": "Cc1nc(C)c(-c2csc(Nc3ncccc3C)n2)s1", "Potency": "active: 2.51 µM"},
      {"smiles": "S=C(Nc1ccc(Br)cc1)Nc1ccc2c(c1)OCCO2", "Potency": "inconclusive [activator, partial curve]"},
      {"smiles": "Cc1nc2sc(C(N)=O)c(N)c2c2c1CCCC2", "Potency": "inconclusive [activator, partial curve]"},
      {"smiles": "C(=C\\c1ccccn1)/c1cccnc1", "Potency": "inconclusive [activator, partial curve]"},
      {"smiles": "NCc1cccc(CNc2ccc([N+](=O)[O-])cc2C(N)=O)c1", "Potency": "inconclusive [activator, partial curve]"},
      {"smiles": "CCC(=O)Nc1cc(C(=O)OCC(=O)c2ccccc2)ccc1C", "Potency": "inconclusive [activator, single point]"},
      {"smiles": "CCCC(=O)Nc1ccc(-c2csc(-c3cccnc3)n2)cc1", "Potency": "inactive"},
      {"smiles": "Cc1cc2nn(-c3ccc(Cl)cc3)nc2cc1N", "Potency": "inconclusive [activator, single point]"},
      {"smiles": "c1csc(-c2ccc3ccccc3n2)c1", "Potency": "inconclusive [activator, partial curve]"},
      {"smiles": "CC(OC(=O)c1cc2ccccc2o1)C(=O)Nc1ccc(N2CCOCC2)cc1", "note": "(stereo not drawn)", "Potency": "inactive"},
      {"smiles": "CCCC(=O)c1cc(F)c(N2CCOCC2)cc1C", "Potency": "inactive"},
      {"smiles": "CN(C)/C=N/C(=S)Nc1ccc(Br)cc1F", "Potency": "inconclusive [activator, partial curve]"},
      {"smiles": "Nc1nc(-c2ccc(-c3ccccc3)cc2)cs1", "Potency": "active: 0.794 µM"},
      {"smiles": "Cn1cccc1C(=O)NNC(=O)COc1ccccc1F", "Potency": "inconclusive [activator, partial curve]"},
      {"smiles": "CC1=C(C(=O)Nc2ccccc2C(=O)NC2CCC(C)CC2)SCCO1", "note": "(stereo not drawn)", "Potency": "inconclusive [activator, single point]"},
      {"smiles": "O=C(Nc1ccc(OC(F)(F)F)cc1)Nc1cccnc1", "Potency": "inconclusive [activator, partial curve]"},
      {"smiles": "Cc1ccc(NC(=O)c2ccc3c(c2)OCCO3)cc1", "Potency": "active: 0.316 µM"},
      {"smiles": "CCc1nc(SCc2ccc(Br)cc2)n[nH]1", "Potency": "inconclusive [activator, partial curve]"},
      {"smiles": "Cc1ccccc1-c1nnc(-c2ccccc2C)o1", "Potency": "inconclusive [activator, single point]"},
      {"smiles": "COc1ccc(N2CCN(C(=O)c3ccc(Cn4c(=S)[nH]c5ccc(N6CCOCC6)cc5c4=O)cc3)CC2)cc1", "Potency": "inconclusive [activator, partial curve]"},
      {"smiles": "CCn1cc(Br)c(C(=O)Nc2ccc(OC)cc2)n1", "Potency": "inconclusive [activator, partial curve]"},
      {"smiles": "CN(C)CCCNC(=O)c1ccc(-c2nc(-c3ccc(Cl)cc3)cs2)cc1", "Potency": "inconclusive [activator, partial curve]"},
      {"smiles": "CCN(CC)S(=O)(=O)c1ccc(NC(=O)COC(=O)c2cnc(C)cn2)cc1", "Potency": "inactive"},
      {"smiles": "O=c1c(-c2ccc(O)cc2)coc2cc(OC3OC(CO)C(O)C(O)C3O)cc(O)c12", "note": "(stereo not drawn)", "Potency": "inconclusive [activator, single point]"},
      {"smiles": "CCOCCCNC(=O)CCn1nc(-c2ccc(Cl)cc2)ccc1=O", "Potency": "inactive"},
      {"smiles": "Cc1cc(NCc2ccccc2)n2ncc(-c3ccccc3)c2n1", "Potency": "active: 1.58 µM"}
    ]}
  ]
}
